Publication PMC4336329 (PLoS ONE, 2015)
Out of some 310,000 compounds screened, about 2,200 (0.71%) showed an effect of 50% or more. The effect is printed as a negative number. This is one part of the list.

These molecules were tested against human ether-à-go-go-related gene (hERG) potassium channel (human, UniProt Q12809) (assay: primary screen, population patch clamp on CHO cells stably expressing hERG).
Chain of human ether-à-go-go-related gene (hERG) potassium channel (Q12809 whole entry, looked up): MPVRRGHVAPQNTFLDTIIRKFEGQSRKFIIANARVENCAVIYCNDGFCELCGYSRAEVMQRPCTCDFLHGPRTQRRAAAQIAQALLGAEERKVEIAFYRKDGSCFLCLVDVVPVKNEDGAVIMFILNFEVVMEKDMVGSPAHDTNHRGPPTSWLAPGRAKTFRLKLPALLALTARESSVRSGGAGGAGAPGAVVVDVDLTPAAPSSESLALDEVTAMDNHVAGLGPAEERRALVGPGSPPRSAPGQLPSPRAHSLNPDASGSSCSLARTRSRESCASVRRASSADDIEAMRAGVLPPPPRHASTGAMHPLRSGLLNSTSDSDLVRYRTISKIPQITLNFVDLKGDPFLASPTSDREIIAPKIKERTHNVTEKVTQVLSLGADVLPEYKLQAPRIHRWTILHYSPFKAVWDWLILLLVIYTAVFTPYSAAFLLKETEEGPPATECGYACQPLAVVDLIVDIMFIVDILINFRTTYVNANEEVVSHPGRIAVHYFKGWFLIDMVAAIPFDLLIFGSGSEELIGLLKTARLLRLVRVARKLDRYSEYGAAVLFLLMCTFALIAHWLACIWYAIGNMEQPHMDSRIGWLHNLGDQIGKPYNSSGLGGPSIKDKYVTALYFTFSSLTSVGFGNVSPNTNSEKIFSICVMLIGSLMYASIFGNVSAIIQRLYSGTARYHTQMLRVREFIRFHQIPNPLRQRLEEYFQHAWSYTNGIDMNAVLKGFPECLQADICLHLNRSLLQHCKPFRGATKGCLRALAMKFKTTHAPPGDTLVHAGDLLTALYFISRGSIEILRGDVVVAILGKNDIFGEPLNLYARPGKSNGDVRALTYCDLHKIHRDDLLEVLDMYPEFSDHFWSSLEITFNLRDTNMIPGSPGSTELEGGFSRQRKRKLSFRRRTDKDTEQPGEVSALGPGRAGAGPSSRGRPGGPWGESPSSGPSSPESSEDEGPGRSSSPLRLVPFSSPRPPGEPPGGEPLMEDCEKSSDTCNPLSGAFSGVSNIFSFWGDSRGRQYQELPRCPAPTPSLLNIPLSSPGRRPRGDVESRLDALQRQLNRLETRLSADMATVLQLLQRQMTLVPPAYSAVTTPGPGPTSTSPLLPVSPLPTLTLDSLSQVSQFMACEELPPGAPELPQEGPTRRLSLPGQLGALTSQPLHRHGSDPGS

Compound | hERG current change (%, negative = inhibition) at 1uM [%]
CCn1c(=O)cc(OCC(=O)N2CCN(c3cccc(C(F)(F)F)c3)CC2)c2ccccc21 | -8.43
CC(c1ccccc1)C(Cc1nc2ccccc2[nH]1)c1nc2ccccc2[nH]1 (stereo not shown) | 4.36
Cc1cccc(N2CCN(C(=O)c3cccn4c(=O)c5c(C)c(C)sc5nc34)CC2)c1C | 16.7
Cc1ccc(CNC(=O)COC(=O)c2ccc(S(=O)(=O)N3CCCC3)cc2)cc1 | 3.34
Cc1ccc(S(=O)(=O)N=S(CC2CC2(Cl)Cl)CC2CC2(Cl)Cl)cc1 (stereo not shown) | -0.132
COc1ccccc1N1CCN(C(=O)c2cc3ccccc3[nH]2)CC1 | 10.1
COc1ccc(CCN(C)C(=O)CSc2ncnc3sccc23)cc1OC | 14.1
C/C(=N\Nc1ccc(F)cc1F)c1ccc(F)cc1 | 6.71
Cc1cc(OCC(=O)N2CCOCC2)cc2oc(=O)c3ccccc3c12 | 7.05
COc1cc(CCC(=O)NNC(=O)c2ccc(C)cc2)cc(OC)c1OC | 10.9
O=C(NCCc1ccccc1)C1CCC(Cn2c(=O)c3ccccc3n(Cc3cccc(Cl)c3)c2=O)CC1 (stereo not shown) | 13.5
COc1cc(-c2[nH]nc3c2C(c2ccco2)C(C#N)=C(N)O3)cc(OC)c1OC (stereo not shown) | 9.78
Cc1ccc(N=C2NC(=O)S/C2=C\c2ccco2)cc1 | 10.2
O=S1(=O)CC2SC(=S)N(Cc3ccccc3)C2C1 (stereo not shown) | 9.7
Cc1ccc(C)c(NC(=O)COC(=O)CC2c3ccccc3CCN2S(=O)(=O)c2ccc(F)cc2)c1 (stereo not shown) | 20.3
O=C(CCn1c(=O)c2cccn2c2cccnc21)NCc1cccc(Cl)c1 | 6.36
COc1ccc(S(=O)(=O)N2CCCC(C(=O)N3CCOCC3)C2)cc1OC (stereo not shown) | 18.6
c1ccc(CNc2ncnc3sc4c(c23)CCC4)nc1 | 1.23
COc1ccccc1/C=N/NC(=O)Cn1cnc([N+](=O)[O-])n1 | 4.13
O=S(=O)(Nc1ccccn1)c1cccc(S(=O)(=O)c2ccc(Cl)cc2)c1 | 1.05
O=C(O)C1(c2ccc(Cl)cc2)CCC1 | 6.33
Cc1cc(-c2n[nH]c(=S)n2/N=C/c2ccco2)n[nH]1 | 7.18

Compound | hERG current change (%, negative = inhibition) at 1uM [%]
NC(=O)C1(N2CCCCC2)CCN(C(=O)CCCn2c(=O)[nH]c3ccsc3c2=O)CC1 | 11.5
CC(=O)C1=C(O)C(=O)N(c2ccc(C)cc2)C1c1ccccn1 (stereo not shown) | 22.3
CCC(=O)NC(=S)Nc1ccc(NC(=O)c2ccco2)c(OC)c1 | 2.73
C=CCn1c(N2CCCCCC2)nc2c1c(=O)[nH]c(=O)n2C | 9.96
O=C(Nc1ccncc1)Nc1ccc(Cl)cc1 | 4.74
CCc1nnc(NC(=O)CSc2nc(-c3ccccc3)cc(-c3ccc(F)cc3)c2C#N)s1 | 7.84
CC1(C)O[C@H]2CC(=O)OCC23[C@H]2CC[C@@]4(C)[C@H](c5ccoc5)OC(=O)[C@H]5O[C@]54[C@]2(C)C(=O)C[C@@H]13 (stereo partly shown) | 5.99
Cc1cccc(NC(=O)CN2C(=O)C(C)Oc3ccccc32)n1 (stereo not shown) | 2.69
NC(=O)c1cc2cc(Br)ccc2oc1=NCc1ccccc1 | 7.09
O=C1CN(C(=O)CNCc2ccccc2)c2ccccc2N1 | 3.99
CCCCN(C(=O)C(C)Oc1ccc(Cl)cc1)c1c(N)n(CCCC)c(=O)[nH]c1=O (stereo not shown) | 1.24
O=C(CN1CCN(C(=O)c2cccc(S(=O)(=O)N3CCCC3)c2)CC1)Nc1ccccc1Cl | -9.25
C=CCN1C(=O)CN=C1NCc1ccccc1.Cl | 5.45
Cc1ccc(C)c(N(CC(=O)Nc2cc(Cl)ccc2Oc2ccccc2)S(C)(=O)=O)c1 | 5.82
CCC(C)c1ccc2oc(-c3ccc(NC(=O)c4ncn[nH]4)cc3)nc2c1 (stereo not shown) | 4.45
COc1cccc(S(=O)(=O)NCc2ccc(C(=O)NCc3ccco3)cc2)c1 | 9.85
Cc1ccc(C(=O)Oc2ccc(C(=O)COC(=O)C3CC(=O)N(Cc4ccco4)C3)cc2)cc1 (stereo not shown) | -2.92
Cc1cccc(NCc2ccccc2O)n1 | 11
CN(/C(=N\S(=O)(=O)c1ccccc1)C(F)(F)F)c1ccccc1 | 6.47
O=C(CSC(=S)N1CCCCC1)N1N=CCC1c1ccccc1 (stereo not shown) | 14
COc1cc(C2C(C(=O)c3ccc(C)o3)=C(O)C(=O)N2c2cc(C)on2)ccc1OCc1ccccc1 (stereo not shown) | 10.2
COc1ccccc1C(=O)OCC(=O)Nc1ccccc1OC(F)F | 3.73

Compound | hERG current change (%, negative = inhibition) at 1uM [%]
O=C(CCC(=O)N/N=C/c1ccc(Br)o1)N/N=C/c1ccc(Br)o1 | 12.2
COc1ccc(NC(=O)Cc2nnc(SCC(=O)NC3CCCCC3C)n2C)cc1 (stereo not shown) | 11.9
COc1cc(/C=N\N=C2/SC(CC(=O)O)C(=O)N2c2ccc(O)cc2)ccc1O (stereo not shown) | 14.9
O=C(NCc1ccco1)NCC(F)(F)F | 12.2
O=C(CN1C(=O)C2(OCCCO2)c2ccccc21)NCCc1ccccc1 | 2.73
Cc1nnc(NC(=O)c2ccc(S(=O)(=O)C(F)F)cc2)s1 | -3.95
O=C(c1ccc(Cn2cc(Br)cn2)cc1)N1N=C(C(F)F)CC1(O)C(F)F (stereo not shown) | 10.3
CCOC(=O)N/N=C/c1ccc(OCCSc2ccc(Cl)cc2)c(OCC)c1 | -3.36
Cc1nc2c(C)cccn2c(=O)c1NC(=O)c1ccco1 | -9
Cc1cc(C(=O)OCC(=O)N(C)c2c(N)n(Cc3ccccc3)c(=O)[nH]c2=O)c(C)n1-c1ccccc1 | 12.1
O=C(CCc1ccccc1)Nc1nc2ccc(S(=O)(=O)N3CCOCC3)cc2s1 | 13.2
CCC(=O)c1ccc(N2CCN(C(=O)c3ccccc3)CC2)c(F)c1 | -23.4
CC(C)(C)NCCOCCOc1ccccc1-c1ccccc1.O=C(O)C(=O)O | -7.71
O=C(c1ccco1)N1CCN(C(=O)c2sccc2-c2ccccc2)CC1 | 3.23
CCOc1ccccc1NC(=O)C1CCCN(S(=O)(=O)c2cccc3cccnc23)C1 (stereo not shown) | 1.54
Cc1nc(C)c(-c2csc(Nc3ccc(F)cc3)n2)s1 | -6.6
C=CCCN(Cc1ccccc1)S(=O)(=O)c1ccccc1Br | 9.46
CS(=O)(=O)N1CCN(C(=O)c2cc(-c3cccnc3)nc3ccc(Cl)cc23)CC1 | 16.8
Cc1ccc(S(=O)(=O)c2c(C)c(C)c(C)[nH]c2=O)cc1 | 14.7
COc1ccc(/C=N/NC(=O)c2cc(-c3ccccc3OC(C)C)nc3ccccc23)cc1CN1CCOCC1 | 4.46
COc1ccccc1NC(=O)N1CCN(C)CC1 | 7.27
CCOc1ccc(S(=O)(=O)N2CCC(C(=O)NCCN3CCOCC3)CC2)cc1C | 3.21

Compound | hERG current change (%, negative = inhibition) at 1uM [%]
Cc1ccc(CCN2CC(C(=O)NCCCN3CCC(C)CC3)CC2=O)cc1 (stereo not shown) | -16
CC(NC(=O)Nc1cccc(F)c1)c1ccc2c(c1)OCO2 (stereo not shown) | 14.4
N#C/C(=C\c1ccc(-c2ccc(C(=O)O)cc2)o1)C(=O)NCC1CCCO1 (stereo not shown) | 2.36
CCc1nnc(NC(=O)CSc2nnc(Cc3ccccc3)n2Cc2ccccc2)s1 | 10.5
CC(=O)c1ccc(NC(=O)c2ccc(-n3cncn3)c([N+](=O)[O-])c2)cc1 | 3.62
O=C(CN(Cc1ccccc1)S(=O)(=O)c1ccc(Br)cc1)NCC1CCCO1 (stereo not shown) | -80.5
CSc1ccc(NC(=O)CSc2nc3[nH]c(=O)cc(O)c3s2)cc1 | 9.33
CCCN(C(=O)c1ccco1)c1nnc(-c2ccccc2C)s1 | -1.18
Cc1cc(Cl)ccc1OCC(=O)Nc1nc(-c2cccnc2)cs1 | 13.3
COc1ccc(C)cc1S(=O)(=O)Nc1cccc(-c2ccc(N3CCCCCC3)nn2)c1 | 12.5
CCOc1ccc(/C=C(\C#N)C(=O)NC2CC2)c(OCC)c1 | 3.5
CC1CCN(CCNC(=O)C2CCCN(c3ncnc4c3nc3n4CCCCC3)C2)CC1 (stereo not shown) | 15.5
COC(=O)C1=C(N)Oc2cc(C)n(CCc3ccccc3)c(=O)c2C1c1cccnc1 (stereo not shown) | -1.7
COC(=O)c1ccc(Cn2c(C)cc(C)[n+]2C)o1.[I-] | 13.1
CCC(C)Nc1nc2c(c(=O)n(C)c(=O)n2C)n1Cc1ccc(Cl)cc1 (stereo not shown) | 13.5
CCCCn1nnc(NC(=O)COc2ccc(Cl)c(C)c2)n1 | 19.6
O=C(NCCN1CCOCC1)C(=O)NCC1OCCN1S(=O)(=O)c1ccc(Br)cc1 (stereo not shown) | 8.35
O=C(CCCSc1nnc(-c2cccs2)n1CC1CCCO1)c1ccccc1 (stereo not shown) | -10.9
O=C(NC1CCCC1)C(c1ccsc1)N(C(=O)Cc1cccs1)c1ccc(F)cc1 (stereo not shown) | 14.9
